# Measurements: PubChem BioAssay AID759 (NMMLSC, 2007)
# In all, about 190,000 compounds went through this assay and about 270 (0.14%) were called active. The shares of active, inactive and inconclusive entries below differ from those in the screen.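 The calls were made as follows: active = GTP binding activity at least 20% away from the 100% baseline, either lowered as inhibitor or raised as activator; inconclusive = flagged as likely green fluorescent, judged across all proteins in the well; inactive = the rest.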
# Target: GTPase HRas (Homo sapiens) (UniProt P01112)
# Assay: HRas wt fluorescent GTP binding changes, either direction – biochemical, wildtype, bead-based flow cytometry, multiplex, primary screen (AID 759);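 also: 0% = unlabeled GTP competition control and 100% = no-compound control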
# Conditions: GST-Ras wt beads, Bodipy-FL-GTP binding, at 10 µM, actives lie on both sides
# UniProt P01112, sequence (P01112 whole entry, looked up): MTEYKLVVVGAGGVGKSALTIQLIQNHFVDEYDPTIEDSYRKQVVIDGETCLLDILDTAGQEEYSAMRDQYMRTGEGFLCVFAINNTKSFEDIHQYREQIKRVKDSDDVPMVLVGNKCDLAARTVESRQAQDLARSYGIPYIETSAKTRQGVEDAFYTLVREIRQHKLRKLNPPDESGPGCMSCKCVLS
row,SMILES,GTP binding activity
1,CC(=O)Nc1ccc(S(=O)(=O)Nc2ccc(C)c([N+](=O)[O-])c2)cc1,inconclusive: 92%
2,O=C1OC(c2ccccc2)=NC12CC2c1ccc(Cl)cc1 (configuration not stated),inconclusive: 96%
3,CCOc1ccc(CC(=O)NCC2(N3CCCCC3)CCCCC2)cc1,inconclusive: 80%
4,CCc1ccc(NC(=O)CNC(=O)c2cn(-c3ccccc3OC)c(=O)c3ccccc23)cc1,inconclusive: 95%
5,COc1ccccc1NC(=O)CSc1nc2n[nH]c(C)c2c(=N)n1-c1ccccc1Cl,inconclusive: 82%
6,COC(=O)CSc1nnc(CNC(=O)c2cccc(C)c2)n1-c1ccccc1OC,inconclusive: 103%
7,CCN(CC)C(=O)Cn1nnc(-c2ccc(S(C)(=O)=O)cc2)n1,inactive: 97%
8,COc1cc(C)c(S(=O)(=O)NCc2cccs2)cc1C,inconclusive: 93%
9,O=C(CSc1n[nH]c(=O)n1C1CC1)NCc1ccccc1Cl,inactive: 96%
10,Cc1ccsc1/C=N/NC(=O)c1ccc(-n2cccc2)cc1,inactive: 100%
11,COc1ccc(S(=O)(=O)Cc2ccc(C(=O)N3CCN(c4ccc(Cl)cc4)CC3)o2)cc1,inactive: 104%
12,C/C(=N\NC(=O)Cc1csc(N2CCOCC2)n1)c1ccc(Cl)c(Cl)c1,inconclusive: 95%
13,CCCCN(CCCC)c1nc(OC)nc(-n2nnc(C(C)=O)c2C)n1,inconclusive: 98%
14,CCN1C(=O)/C(=C\c2ccc(-c3ccc([N+](=O)[O-])cc3OC)o2)SC1=Nc1cccc(C(=O)O)c1,inconclusive: 89%
15,CN1c2ccsc2C(O)=C(C(=S)Nc2ccc(F)c(Cl)c2)S1(=O)=O,inactive: 98%
16,CCOCCCNC(=O)c1ccc(N2CCOCC2)c(NS(=O)(=O)c2ccc(OC)cc2)c1,inconclusive: 94%
17,Cc1cc(Cl)c(S(=O)(=O)Nc2ccccn2)cc1OCC(N)=O,inactive: 102%
18,Cn1c2c(c(=O)n(C)c1=O)C(c1ccc(O)cc1)Nc1ccccc1O2 (configuration not stated),inconclusive: 95%
19,O=C(NC1CCCCCC1)C(=S)NCCc1ccccc1,inconclusive: 92%
20,NC(=O)c1cc2nc(-c3ccco3)cc(C(F)(F)F)n2n1,active: 65%
21,Cc1cc(C)nc(/N=C(\N)Nc2ccccc2-c2ccccc2)n1,inconclusive: 95%
22,Cc1ccc(OCCC(=O)Nc2ccc(F)c(Cl)c2)cc1,inconclusive: 96%
23,O=C(CSc1ncnc2ccccc12)NCC(=O)c1ccccc1,inactive: 95%

row,SMILES,GTP binding activity
1,O=C(N/N=C/c1coc2ccccc2c1=O)c1cccc([N+](=O)[O-])c1,inconclusive: 92%
2,CCN(CC)CCOC(=O)c1c(C)n(C)c2ccc(OC)cc12,inconclusive: 103%
3,O=c1c2c(-c3ccccc3)csc2nc2n1CCC2,inconclusive: 90%
4,O=S(=O)(Nc1cccc(-c2cn3ccsc3n2)c1)c1ccc(F)cc1,inconclusive: 93%
5,O=c1c2ccccc2nc2c3ccccc3c(NCc3cccnc3)nn12,active: 75%
6,O=C(c1cccs1)n1nc(-c2ccccc2)nc1NCc1ccco1,inconclusive: 100%
7,COc1cc(N=Nc2c(C)n(C)n(-c3ccccc3)c2=O)ccc1N,inactive: 101%
8,Cc1ccc(CN2CCN(Cc3cccn3-c3nccs3)CC2CCO)cc1 (configuration not stated),inactive: 96%
9,Cc1nn(C)c(C)c1S(=O)(=O)N(CC(=O)N1CCc2ccccc2C1)c1ccc(C(C)C)cc1,inactive: 97%
10,Cc1cccc(C)c1NC(=O)C(c1ccc([N+](=O)[O-])cc1)N(C)C(=O)c1ccccn1 (configuration not stated),inactive: 101%
11,Cn1cc(C=C2C(=O)CC(C)(C)CC2=O)c2ccccc21,active: 38%
12,COC(=O)c1cc2nc(-c3ccc(OC)c(OC)c3)cc(C(F)(F)F)n2n1,inactive: 99%
13,O=S(=O)(Nc1ncccn1)c1ccc(-n2cnnn2)cc1,inactive: 95%
14,Cc1ccc(/C=C2/SC(=O)NC2=S)o1,inactive: 90%
15,CC(CN1CCOCC1)OC(=O)c1ccccc1Br (configuration not stated),inconclusive: 102%
16,O=C(O)c1ccc(/C=N/NC(=O)c2cc(-c3cccs3)nc3ccccc23)cc1,inconclusive: 92%
17,COc1cccc(/C=C/C(=O)c2cccc([N+](=O)[O-])c2)c1OC,inconclusive: 93%
18,Cc1ccc(C(=C2C3C=CC2C2C(=O)NC(=O)C32)c2ccc(C)cc2)cc1 (configuration not stated),inconclusive: 105%
19,COc1cc(C(=O)N2CCC(O)(c3ccccc3)CC2)cc(OC)c1OC,inactive: 95%
20,O=c1c2c(-c3ccccc3)csc2nc2c3ccccc3c(NCCN3CCOCC3)nn12,active: 65%
21,O=C(Nc1ccccc1C(=O)N1CCOCC1)C1CCC(=O)N1C1CCCC1 (configuration not stated),inconclusive: 205%
22,COc1ccc(OC)c(CNC(=O)CCNC(=O)Cn2ccc3ccccc3c2=O)c1,inconclusive: 104%
23,Fc1ccc(C2CC(c3cccs3)=NN2c2ccccc2)cc1 (configuration not stated),inconclusive: 90%

row,SMILES,GTP binding activity
1,O=C1CSC(=S)N1/N=C/c1ccc(O)c([N+](=O)[O-])c1,inconclusive: 89%
2,COc1ccc(CCNC(=O)CCc2ccc(S(=O)(=O)NCC(C)C)cc2)cc1,inactive: 102%
3,Cc1nc(N/N=C/c2ccccc2)nc(N(C)c2ccccc2)c1[N+](=O)[O-],inconclusive: 109%
4,O=C(NC1CCCCCC1)c1cc(S(=O)(=O)N2CCCCC2)ccc1N1CCOCC1,inconclusive: 102%
5,Cc1ccnc(NC(=O)/C=C/c2cccs2)c1,inconclusive: 162%
6,COCC(C)NC(=O)c1cc(-c2ccccc2OC)on1 (configuration not stated),inconclusive: 105%
7,O=C(/C=C/c1c(F)cccc1Cl)Nc1ncccn1,inconclusive: 103%
8,Cc1cccc(C(=O)N(c2ccccn2)C(C)c2ccco2)c1 (configuration not stated),inconclusive: 93%
9,COc1ccc(-c2cc(C(F)(F)F)n3nc(C(=O)NCc4ccco4)cc3n2)cc1OC,inconclusive: 86%
10,O=C(O)c1ccc(N2C(=O)CC(N3CCC(c4nc5ccccc5[nH]4)CC3)C2=O)cc1 (configuration not stated),inconclusive: 90%
11,O=c1cnnc(N/N=C/c2c[nH]c3ccccc23)[nH]1,inconclusive: 92%
12,Cc1cc(NC(=O)Nc2cccc(C)c2C)no1,inactive: 97%
13,CCOc1ccc(C(=O)N2CCN(c3cccc(C)c3C)CC2)cc1,inconclusive: 88%
14,Cc1ccc(C(=O)N2CCN(c3ncccn3)CC2)cc1S(=O)(=O)N1CCCCC1,inactive: 101%
15,CCN(CC)C(=O)COc1ccc(S(=O)(=O)N2CCOCC2)cc1,inconclusive: 108%
16,COc1ccc(CNc2nc3ccccc3n2Cc2ccc(C)cc2)cc1OC,active: 121% [activator]
17,Brc1ccc(CSc2nnc(-c3ccccn3)n2Cc2ccco2)cc1,inconclusive: 100%
18,O=C(Nc1cccc(-c2nc3ncccc3o2)c1)c1sc2ccccc2c1Cl,inconclusive: 87%
19,CC1CC(C)(C)NC(=S)N1CC(=O)NCc1ccc(Cl)cc1 (configuration not stated),inconclusive: 103%
20,O=P(O)(O)c1ccccc1OCCOCCOCCOCCOc1ccccc1P(=O)(O)O,inactive: 100%
21,O=C(c1ccccc1Sc1ccccc1[N+](=O)[O-])N1CCCCC1,inactive: 96%
22,CCCCN(C(=O)NC(=O)Nc1nc2ccc(OC)cc2s1)S(C)(=O)=O,inconclusive: 81%
23,O=C(O)CCCN1C(=O)/C(=C\c2ccco2)SC1=S,inactive: 96%

row,SMILES,GTP binding activity
1,O=C(Nc1ccc(N2CCN(C(=O)C3CC3)CC2)cc1)c1cccs1,inactive: 95%
2,CC(C)(C)NC(=O)c1ccc2nsnc2c1,inconclusive: 442%
3,O=C1CN(C(=O)/C=C/c2cccc(Cl)c2)c2ccccc2N1,inconclusive: 82%
4,Cc1cccc(C(=O)NCC(=O)N2CC(=O)Nc3ccccc32)c1,inactive: 100%
5,CCCSc1nc(O)c(C(c2ccc(OC)c(O)c2)c2c(O)nc(SCCC)n(C)c2=O)c(=O)n1C,inconclusive: 90%
6,O=[N+]([O-])c1cc(S(=O)(=O)NC2=NCCCCC2)ccc1NCC1CCCCC1,inactive: 101%
7,COc1ccc(C(=O)Nc2cc(Cl)ccc2Cl)c(OC)n1,inconclusive: 103%
8,O=S(=O)(c1ccc2nc(SCc3cccc(Cl)c3)[nH]c2c1)N1CCOCC1,inconclusive: 96%
9,O=[N+]([O-])c1ccc2nc(-c3ccc(Cl)cc3)n(OCc3ccccc3)c2c1,inconclusive: 103%
10,COc1cccc(OCCOCCN(C)CCO)c1,inconclusive: 104%
11,COc1ccc(C(=O)Nc2cccc(-c3cc4ccccc4oc3=O)c2)cc1[N+](=O)[O-],inactive: 99%
12,COC(=O)CCNS(=O)(=O)c1ccc2ccccc2c1,inconclusive: 98%
13,Cc1nonc1OCCn1c([N+](=O)[O-])cnc1C,inactive: 95%
14,CC(C)c1cc(NCc2ccccn2)n2c(nc3ccccc32)c1C#N,inconclusive: 77%
15,CN(C)c1ccc(/C=N/NC(N)=S)cc1[N+](=O)[O-],inactive: 99%
16,O=C(Nc1ccc(Br)cc1)c1csc(-c2ccncc2)n1,inconclusive: 93%
17,N#CCc1nn(-c2ccc(F)cc2)c(N)c1C#N,inconclusive: 85%
18,CCCN(c1nc(C)cc(OC)n1)S(=O)(=O)c1ccccc1,inconclusive: 94%
19,N#Cc1c(Cl)nc(SCc2ccccc2)nc1-c1ccccc1,inactive: 101%
20,O=C(NCCCCNC(=O)c1ccc(Cl)s1)c1ccc(Cl)s1,inconclusive: 104%
21,CCOC(=O)C1=NN(c2ccccc2)C(=O)/C1=C\c1ccc(N(C)C)cc1,inconclusive: 91%
22,Cc1ccc(C(=O)N/N=C/c2cc(C)n(-c3ccc(Br)cc3)c2C)cc1[N+](=O)[O-],inconclusive: 106%
23,Fc1ccc(OCc2nn3c(Cn4nnc5ccccc54)nnc3s2)cc1,inconclusive: 94%
